Assay results from PubChem BioAssay AID1508642 (National Center for Advancing Translational Sciences (NCATS), 2021).
The campaign covered roughly 43,000 compounds. About 200 (0.47%) were called active. Not shown: some 12% with an inconclusive outcome. Calls follow the shape of the dose curve; as a rule, active = well fitted cell-killing curve with a large enough effect; inconclusive = small, poorly fitted or top-dose-only effect, or effect the other way; inactive = flat fitted curve, though single readings scatter. The list shows a part of the results.
% is scaled to controls: 0 for no effect and ±100 for the full control effect.

Assay: Cell viability qHTS assay in S16 Pmp22-F2sN cells; also: nearly all actives have a fitted effect of over 65% in size
Details: S16 Pmp22-F2sN Schwann cells (luciferase reporters placed in the Pmp22 gene) viability, CellTiter-Glo, 24 h; series mostly up to 57.5 µM; activity change, negative = cytotoxicity: at the top concentration
Method in brief: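 CellTiter-Glo counter-screen, qHTS, 1536-well. Cells: S16(c9) Pmp22-F2sN, 500-1,000/well in DMEM + 10% FBS. Cpd 23 nL pin transfer, 24 h, 37C/5% CO2. Read: luminescence, CCD imager.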
With `COc1ccc(-c2nnc(SCC(=O)Oc3cccc(C)c3C)o2)cc1` the “activity change, negative = cytotoxicity” value was inactive: 1.01%.
In the case of `COc1cccc(CNC(=O)CCc2nc(-c3ccc(C)cc3)no2)c1`, the “activity change, negative = cytotoxicity” value is reported as inactive: -0.808%.
For `Cc1cc(OCCn2cc(C(=O)c3ccco3)c3ccccc32)ccc1Cl`, the “activity change, negative = cytotoxicity” value was inactive: 0.37%.
For `COc1ccccc1NC(=O)CSc1oc(-c2ccco2)nc1S(=O)(=O)c1ccc(Br)cc1`, the “activity change, negative = cytotoxicity” value was inactive: -16.3%.
In the case of `CCN(CC)S(=O)(=O)c1ccc2nc(NC(=O)c3ccc(Br)o3)sc2c1`, the “activity change, negative = cytotoxicity” value is reported as inactive: -0.974%.
In the case of `O=C(Nc1nc2ccc(Cl)cc2s1)c1ccc(S(=O)(=O)N2CCCC2)cc1`, the “activity change, negative = cytotoxicity” value is reported as inactive: -10.4%.
With `CCOc1cccc(C2c3[nH]c4ccccc4c3CCN2C(=O)CCc2ccccc2)c1` (stereo not drawn) the “activity change, negative = cytotoxicity” value was inactive: 2.63%.
With `Cc1cccc(NC(=O)C2CCCN(c3nnc(-n4c(C)ccc4C)s3)C2)c1C` (stereo not drawn) the “activity change, negative = cytotoxicity” value was inactive: -1.78%.
For `O=C(NCc1noc2ccccc12)Nc1ccc(F)cc1F`, the “activity change, negative = cytotoxicity” value was inactive: -3.53%.
For `CCOC(=O)c1nc(Nc2ccccc2C)c2ccccc2n1`, the “activity change, negative = cytotoxicity” value was inactive: -16.2%.
With `CC(C)c1ccc(NC(=O)CN2C(=O)c3cccc4cccc2c34)cc1` the “activity change, negative = cytotoxicity” value was inactive: -0.776%.
For `COc1ccc(C)cc1NC(=O)CN1C(=O)COc2ccc(S(=O)(=O)N3CCCCCC3)cc21`, the “activity change, negative = cytotoxicity” value was inactive: -1.28%.
For `CCOC(=O)C1CCCN(C(=O)c2ccc3c(c2)N(Cc2cccc(Cl)c2)C(=O)c2ccccc2S3(=O)=O)C1` (stereo not drawn), the “activity change, negative = cytotoxicity” value was inactive: 11.7%.
In the case of `CCCN(C(=O)Cn1c(=O)oc2cc(Cl)ccc21)c1ccc(C(C)C)cc1`, the “activity change, negative = cytotoxicity” value is reported as inactive: 0.231%.
For `Cc1ccc(Cl)cc1N1CCN(C(=O)c2cn(C)c3ccc(S(=O)(=O)N4CCC(C)CC4)cc3c2=O)CC1`, the “activity change, negative = cytotoxicity” value was inactive: -2.07%.
With `CCCOc1ccc(C(=O)N(Cc2cccs2)C2CCS(=O)(=O)C2)cc1` (stereo not drawn) the “activity change, negative = cytotoxicity” value was inactive: 2.38%.
For `O=C(NCC(c1ccc(Cl)cc1)N1CCCCC1)c1ccccc1` (stereo not drawn), the “activity change, negative = cytotoxicity” value was inactive: 3.44%.
In the case of `CCNc1nc2c(c(=O)n(C)c(=O)n2C)n1CC(O)COc1ccccc1` (stereo not drawn), the “activity change, negative = cytotoxicity” value is reported as inactive: -4.02%.
With `COC(=O)c1cc(NC(=O)c2cnc(SC)nc2-c2ccccc2)cc(C(=O)OC)c1` the “activity change, negative = cytotoxicity” value was inactive: 0.82%.
In the case of `Cc1cc2c(cc1S(=O)(=O)CCC(=O)Nc1ccc(OC(F)(F)F)cc1)OCC(=O)N2`, the “activity change, negative = cytotoxicity” value is reported as inactive: 24.4%.
With `Cc1c2cnn(CC(=O)O)c(=O)c2c(C)n1Cc1cccc(Cl)c1` the “activity change, negative = cytotoxicity” value was inactive: 7.91%.
For `COc1ccc(NC(=O)Nc2cccc(C)n2)c(OC)c1`, the “activity change, negative = cytotoxicity” value was inactive: 5.77%.
In the case of `O=C(CC1N=C2c3ccccc3N=C(SCc3ccc(Cl)cc3)N2C1=O)NC1CCCCC1` (stereo not drawn), the “activity change, negative = cytotoxicity” value is reported as inactive: -1.09%.
For `COc1cc(OC)cc(-c2nc3nc(C)c(CCC(=O)Nc4ccc(C)cc4)c(C)n3n2)c1`, the “activity change, negative = cytotoxicity” value was inactive: 24.9%.
For `Nc1c(C(=O)Nc2ccccc2Cl)nnn1Cc1cccc(Cl)c1`, the “activity change, negative = cytotoxicity” value was inactive: -3.21%.
For `Cc1ccc(-n2ncc3c(N4CCC(C)CC4)ncnc32)cc1C`, the “activity change, negative = cytotoxicity” value was inactive: 13.2%.
With `Cc1cccc(-c2noc(CNC(=O)c3ccc(C)cc3C)n2)c1` the “activity change, negative = cytotoxicity” value was inactive: -20.5%.
For `COc1ccc(C(C(=O)NCc2ccccc2)N(C(=O)Cn2nnc3ccccc32)c2ccc(F)cc2)cc1` (stereo not drawn), the “activity change, negative = cytotoxicity” value was inactive: 5.06%.
In the case of `Cc1ccc(CNC(=O)COCc2cc(-c3ccc4c(c3)OCO4)on2)cc1`, the “activity change, negative = cytotoxicity” value is reported as inactive: 2.75%.
With `CCOc1ccc2cc(-c3nnc(Nc4ccccc4F)s3)c(=O)oc2c1` the “activity change, negative = cytotoxicity” value was inactive: 4.99%.
In the case of `CCOc1ccc(S(=O)(=O)c2cn(Cc3ccc(C)cc3)c3ccc(OC)cc3c2=O)cc1`, the “activity change, negative = cytotoxicity” value is reported as inactive: -6.62%.
For `Cc1ccc(-c2cnc(NCc3ccc(C(C)C)cc3)n2C)cc1`, the “activity change, negative = cytotoxicity” value was inactive: 4.86%.
With `O=C(NCc1cccc(Br)c1)c1ccc(-n2cnc3cccnc32)cc1` the “activity change, negative = cytotoxicity” value was inactive: -5.81%.
With `Cc1ccccc1CNCCCSc1nnnn1-c1ccccc1` the “activity change, negative = cytotoxicity” value was inactive: 10.2%.
With `Cc1ccc2oc(=O)c3cnn(CC(=O)Nc4ccc(Br)cc4C)c3c2c1` the “activity change, negative = cytotoxicity” value was inactive: 3.46%.
With `CCc1ccccc1NC(=O)C(=O)c1cc(C)n(-c2ccccc2F)c1C` the “activity change, negative = cytotoxicity” value was inactive: -2.79%.
In the case of `Cc1cc(C)c(Cn2c(C)c(CNCc3ccccc3C)c(C(=O)O)c2C)c(C)c1`, the “activity change, negative = cytotoxicity” value is reported as inactive: -9.46%.
In the case of `O=C(c1ccco1)N(Cc1cccnc1)c1nc2c(F)cccc2s1`, the “activity change, negative = cytotoxicity” value is reported as inactive: 24.7%.
With `CCc1cccc(C)c1NC(=O)COCc1cc(-c2ccc3c(c2)OCO3)on1` the “activity change, negative = cytotoxicity” value was inactive: -12.5%.
For `CCOCCCNC(=O)C(c1ccc(Cl)cc1)N(Cc1ccc2c(c1)OCO2)C(=O)c1ccccc1O` (stereo not drawn), the “activity change, negative = cytotoxicity” value was inactive: -1.36%.
In the case of `Cc1cccc(NC(=O)c2ccc(F)c(S(=O)(=O)N(C)C3CCCCC3)c2)c1`, the “activity change, negative = cytotoxicity” value is reported as inactive: 2.57%.
With `CCOc1ccc(C(=O)N2CCN(Cc3cc(=O)n4nc(-c5cccc(OC)c5)sc4n3)CC2)cc1` the “activity change, negative = cytotoxicity” value was inactive: -4.32%.
With `CCN(Cc1nc(-c2ccc(OC)cc2)oc1C)S(=O)(=O)c1ccc(Cl)cc1` the “activity change, negative = cytotoxicity” value was inactive: -20.3%.
For `COc1ccc(-c2nc(S(=O)(=O)c3ccccc3)c(N3CCCCC3)o2)cc1`, the “activity change, negative = cytotoxicity” value was inactive: -27.1%.
For `CCCSc1ncc(Cl)c(C(=O)Nc2ccc(CC)cc2)n1`, the “activity change, negative = cytotoxicity” value was inactive: -5.47%.
For `Cc1ccc(CNC(=O)CSc2nc3ccsc3c(=O)n2-c2ccc(C(=O)O)cc2)cc1`, the “activity change, negative = cytotoxicity” value was inactive: 12.2%.
For `CCN(CCCNC(=O)c1cc2cc3cc(OC)ccc3nc2s1)c1ccccc1`, the “activity change, negative = cytotoxicity” value was inactive: -0.951%.
In the case of `COc1ccc(NC(=O)Cn2c(=O)n(-c3ccccc3)c(=O)c3ccc(C(=O)NCc4ccc5c(c4)OCO5)cc32)cc1`, the “activity change, negative = cytotoxicity” value is reported as inactive: -3.32%.
